Data as given in PubChem BioAssay AID485294 (National Center for Advancing Translational Sciences (NCATS), 2010).
Among all 370,000 compounds or so, about 150 (0.041%) were called active. Inconclusive means that the source gave no clear call. Such entries were picked first, then a sample of the others. Calls follow the shape of the dose curve; as a rule, active = well fitted inhibition curve with a large enough effect; inconclusive = small, poorly fitted or top-dose-only effect; inactive = flat fitted curve, though single readings scatter. No potency is given beside an inconclusive call; the fits are too rough.

What follows are molecules tested against Beta-lactamase (Escherichia coli (strain K12)) (UniProt P00811) (assay: qHTS Inhibitors of AmpC Beta-Lactamase (assay with detergent)). Conditions: AmpC hydrolysis of nitrocefin, absorbance 480 nm, 0.01% Triton; activity change, negative = inhibition: at 114 µM (top of the series).
Sequence of UniProt P00811 (P00811 whole entry, looked up): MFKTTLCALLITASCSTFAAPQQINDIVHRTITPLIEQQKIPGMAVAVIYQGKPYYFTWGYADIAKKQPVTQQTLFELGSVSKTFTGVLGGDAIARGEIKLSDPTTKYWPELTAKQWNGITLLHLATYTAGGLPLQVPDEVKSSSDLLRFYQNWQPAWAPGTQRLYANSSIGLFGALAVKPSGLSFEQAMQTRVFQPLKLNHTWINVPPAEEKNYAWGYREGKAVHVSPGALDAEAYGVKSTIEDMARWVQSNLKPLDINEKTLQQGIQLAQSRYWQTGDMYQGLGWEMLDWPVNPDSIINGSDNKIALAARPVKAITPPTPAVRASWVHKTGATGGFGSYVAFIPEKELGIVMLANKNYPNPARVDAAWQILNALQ
Procedure, shortened: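 AmpC (5.3 nM in the dispensed reagent) in 20 mM phosphate pH 7.0 with 0.01% (detergent screen) or 0.0001% Triton X-100 was preincubated with compounds for 15 min at room temperature. Nitrocefin was then added from an 800 uM solution, and hydrolysis was followed at 480 nm.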
Also: nearly all actives have a fitted effect of over 25% in size.
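For activity change, negative = inhibition in this document: 0% = no-compound wells and -100% = no-enzyme wells.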
Potency is read from the fitted curve at half-maximal effect; tags tell the direction and shape of the fitted curve.

SMILES	Potency	activity change, negative = inhibition
COc1ccc(C2=C(CN(C)C)C(c3ccccc3)c3ccccc3O2)cc1 (stereo not drawn)	inconclusive [inhibitor, full curve]	
Cc1cc(NC(=O)CCC(=O)N(CC(=O)NCC2CCCO2)c2cccc(F)c2)no1 (stereo not drawn)	inconclusive [inhibitor, full curve, poor fit]	
COc1ccc(/C=N/Nc2ncc(-c3ccccc3)cn2)c(OC)c1	inconclusive [inhibitor, partial curve, poor fit]	
CCOC(=O)C1CCCN(C(=O)Cn2nc(CC)n3c(cc4occc43)c2=O)C1 (stereo not drawn)		inactive: 22.4%
COCCNC(=O)c1csc2c1CCCC2	inconclusive [inhibitor, single point]	
CCOC(=O)c1cnc(SCC(=O)N2CCN(C(=O)c3ccco3)CC2)nc1N	inconclusive [inhibitor, full curve, poor fit]	
CC1=C(C)CC2C(=O)N(Cc3ccccc3)C(=O)C2C1 (stereo not drawn)	inconclusive [inhibitor, single point]	
CNc1nc(-c2ccc(Cl)cc2)cs1		inactive: -5.98%
COc1ccccc1NC(=O)C(C)OC(=O)CCCOc1ccccc1 (stereo not drawn)	inconclusive [inhibitor, full curve, poor fit]	
O=C(/C=C/c1cccs1)Nc1nncs1		inactive: 2.3%
COc1ccccc1C(=O)NC(=O)COC(=O)CNC(=O)c1ccccc1	inconclusive [inhibitor, partial curve]	
CCOc1ccccc1C1CC(=O)Nc2cc(C)c(C)cc21 (stereo not drawn)	inconclusive [inhibitor, partial curve]	
CNC(=O)c1sccc1S(=O)(=O)Cc1c(Cl)cccc1Cl	inconclusive [inhibitor, full curve, poor fit]	
CCCCC/C(=N\O)c1c[nH]c2ccccc12	inconclusive [inhibitor, full curve, poor fit]	
S=c1[nH]nc(-c2ccncc2)n1Cc1ccco1	inconclusive [inhibitor, full curve, poor fit]	
O=C1NCCCc2nonc21	inconclusive [inhibitor, full curve]	
O=C(CCNC(=O)c1ccc([N+](=O)[O-])cc1)Nc1ccc(F)cc1		inactive: -6.23%
CCCCN(C)C(=O)Cn1c(SCC(=O)Nc2ccc(C)c(C)c2)nc2ccccc21		inactive: -9%
Fc1ccc(CNCc2ccc(Br)cc2)cc1	inconclusive [inhibitor, full curve]	
O=C(O)CCNC(=O)c1cncc(Br)c1	inconclusive [inhibitor, partial curve]	
O=C(NCc1ccco1)C(c1cccs1)N(Cc1ccccc1)C(=O)Cn1nnc2ccccc21 (stereo not drawn)	inconclusive [inhibitor, full curve, poor fit]	
CNC(=O)CN(c1cccc(Br)c1)S(C)(=O)=O	inconclusive [inhibitor, single point]	
CC(=O)N1CCc2cc(S(=O)(=O)NC(Cc3ccccc3)C(=O)Nc3ccc(Cl)cc3)ccc21 (stereo not drawn)		inactive: 1.94%

SMILES	Potency	activity change, negative = inhibition
COc1ccc(C2CC(c3c(O)cc(C)oc3=O)=NCCS2)c(OC)c1 (stereo not drawn)	inconclusive [inhibitor, full curve, poor fit]	
CN(C)c1ccc(C(=O)/C=C/c2ccco2)cc1	inconclusive [inhibitor, full curve, poor fit]	
Cc1ccccc1OCC(=O)OCC(=O)N1CCc2ccccc21	inconclusive [inhibitor, partial curve, poor fit]	
O=C(Nc1nc2ccc(C(=O)N3CCCCC3)cc2s1)C1CCCCC1		inactive: 6.16%
Cc1onc(-c2ccccc2)c1C(=O)Nc1nnc(N2CCCCCC2)s1	inconclusive [inhibitor, full curve]	
CCCC(=O)N1CC(=O)Nc2ccc(F)cc2C1c1ccccc1 (stereo not drawn)	inconclusive [inhibitor, full curve]	
Cc1cc(C)n2nc(-c3sccc3-n3c(C)ccc3C)cc2n1	inconclusive [inhibitor, single point]	
O=C(COc1ccc2c(-c3ccccc3)cc(=O)oc2c1)N[C@@H](Cc1c[nH]c2ccc(O)cc12)C(=O)O	inconclusive [inhibitor, full curve, poor fit]	
Cc1ccc(C(=O)N2CCc3ccccc32)cc1NC(=O)c1ccco1	inconclusive [inhibitor, full curve]	
CCc1cccc(OCC(=O)Nc2ccccc2N2CCCC2)c1		inactive: -2.77%
O=C(Cc1ccc([N+](=O)[O-])cc1)N/N=C/c1ccc([N+](=O)[O-])o1		inactive: -7.42%
Cc1cc(NS(=O)(=O)c2ccc(NC(=O)CCCOc3ccccc3)cc2)no1	inconclusive [inhibitor, full curve, poor fit]	
Nc1nc(N)nc(-c2cccc(Cl)c2Cl)n1	inconclusive [inhibitor, full curve, poor fit]	
Cc1cccc(C)c1NC(=O)CN1C(=O)c2cccc3cccc1c23		inactive: 8.17%
Cc1ccc(NC(=O)C[n+]2ccn(C3=C([O-])c4ccccc4C3=O)c2)cc1		inactive: -3.66%
N#Cc1ccc(S(=O)(=O)NCC(=O)OCC(=O)N2CCCC2=O)cc1		inactive: -18%
COc1ccc(C)cc1NC(=O)CSc1nc(=O)n(Cc2ccccn2)c2c1CCC2		inactive: 0.802%
Cc1ccc(S(=O)(=O)N2CCN(CC(O)COc3ccccc3)CC2)cc1 (stereo not drawn)	inconclusive [inhibitor, single point]	
COc1ccc(-c2noc(C3CCCN(C(=O)c4cccc(F)c4)C3)n2)cc1 (stereo not drawn)	inconclusive [inhibitor, full curve, poor fit]	
CC(=O)NCCC(=O)N1CCCC(N2CCN(c3cccc(Cl)c3)CC2)C1 (stereo not drawn)	inconclusive [inhibitor, full curve, poor fit]	
O=C(CC1Sc2ccccc2NC1=O)Nc1cccc(C(=O)O)c1 (stereo not drawn)	inconclusive [inhibitor, partial curve, poor fit]	
COc1ccccc1C(=O)NC(CCSC)C(=O)NCc1ccccn1 (stereo not drawn)	inconclusive [inhibitor, full curve, poor fit]	
N=C1c2ccccc2CN1NC(=O)C1CC1	inconclusive [inhibitor, partial curve, poor fit]	

SMILES	Potency	activity change, negative = inhibition
O=CNNC(=O)c1cccc([N+](=O)[O-])c1	inconclusive [inhibitor, full curve]	
CC(C)[C@H](NC(=O)N1c2ccccc2NC(=O)[C@@H]1C(C)C)C(=O)N1CCC(C(=O)O)CC1	inconclusive [inhibitor, full curve, poor fit]	
NC(=O)C1CCN(C(=O)c2ccc(Oc3ccccc3)cc2)CC1	inconclusive [inhibitor, single point]	
Cc1ccc(NC(=O)c2oc3c(c2C)C(=O)CC(C)(C)C3)cc1	inconclusive [inhibitor, single point]	
O=C1CC(=O)Nc2cc(S(=O)(=O)NCc3cccs3)ccc2N1		inactive: -1.24%
O=C(COc1ccc([N+](=O)[O-])cc1)Nc1ccccc1C(=O)NC1CC1	inconclusive [inhibitor, full curve, poor fit]	
COC(c1ccccc1)c1nnc(CCC(=O)NCCC(C)C)o1 (stereo not drawn)		inactive: -1.94%
O=C(Cn1c(-c2ccc(Cl)cc2)noc1=O)N1CCN(c2ccccc2F)CC1	inconclusive [inhibitor, full curve, poor fit]	
O=C(CSc1ccc2c(c1)OCCO2)Nc1ccc(Cl)cn1		inactive: -13.2%
O=C(OCC(=O)N1CCCc2ccccc21)c1ccc(C(F)(F)F)cc1	inconclusive [inhibitor, partial curve]	
Nc1nnn(CC(=O)N/N=C/c2cccc3ccccc23)n1	inconclusive [inhibitor, single point]	
c1coc(Cn2nnnc2CN2CCN(C3CCCC3)CC2)c1	inconclusive [inhibitor, full curve]	
Cc1c(NC(NC(=O)CC(C)C)C(Cl)(Cl)Cl)c(=O)n(-c2ccccc2)n1C (stereo not drawn)	inconclusive [inhibitor, single point]	
CN(C)Cc1nc2c(c(=O)[nH]1)C(C)(C)Cc1ccccc1-2	inconclusive [inhibitor, full curve, poor fit]	
CCOC(=O)c1ccc(NC(=O)Oc2ccccc2)cc1		inactive: -14.1%
CCn1c(/C=C/c2cccc([N+](=O)[O-])c2)nc2ccccc2c1=O	inconclusive [inhibitor, partial curve]	
COCN(C#N)c1nc(N(C)C)nc(N(C)C)n1		inactive: 4.09%
O=[N+]([O-])c1ccc(O)c(/C=N/Nc2nc3ccccc3[nH]2)c1	inconclusive [inhibitor, full curve, poor fit]	
CCN1C(=O)c2ccccc2S(=O)(=O)c2ccc(C(=O)NCc3cccnc3)cc21	inconclusive [inhibitor, partial curve]	
CCCc1cc(C(=O)Nc2cccc(Cl)c2C)no1	inconclusive [inhibitor, partial curve, poor fit]	
COc1cc([N+](=O)[O-])ccc1NC(=O)COC(=O)C=C(C)C	inconclusive [inhibitor, full curve, poor fit]	
Cc1cc(C)nc(-n2nc(C)cc2NC(=O)CN2CCCC(C)C2)n1 (stereo not drawn)	inconclusive [inhibitor, full curve, poor fit]	
